These results are taken from paper PMC10868759.

The target in assay [1] is T1, CESA3, N-terminal YN or YC fusion (BiFC) (Arabidopsis thaliana) (UniProt Q941L0).
T1 sequence: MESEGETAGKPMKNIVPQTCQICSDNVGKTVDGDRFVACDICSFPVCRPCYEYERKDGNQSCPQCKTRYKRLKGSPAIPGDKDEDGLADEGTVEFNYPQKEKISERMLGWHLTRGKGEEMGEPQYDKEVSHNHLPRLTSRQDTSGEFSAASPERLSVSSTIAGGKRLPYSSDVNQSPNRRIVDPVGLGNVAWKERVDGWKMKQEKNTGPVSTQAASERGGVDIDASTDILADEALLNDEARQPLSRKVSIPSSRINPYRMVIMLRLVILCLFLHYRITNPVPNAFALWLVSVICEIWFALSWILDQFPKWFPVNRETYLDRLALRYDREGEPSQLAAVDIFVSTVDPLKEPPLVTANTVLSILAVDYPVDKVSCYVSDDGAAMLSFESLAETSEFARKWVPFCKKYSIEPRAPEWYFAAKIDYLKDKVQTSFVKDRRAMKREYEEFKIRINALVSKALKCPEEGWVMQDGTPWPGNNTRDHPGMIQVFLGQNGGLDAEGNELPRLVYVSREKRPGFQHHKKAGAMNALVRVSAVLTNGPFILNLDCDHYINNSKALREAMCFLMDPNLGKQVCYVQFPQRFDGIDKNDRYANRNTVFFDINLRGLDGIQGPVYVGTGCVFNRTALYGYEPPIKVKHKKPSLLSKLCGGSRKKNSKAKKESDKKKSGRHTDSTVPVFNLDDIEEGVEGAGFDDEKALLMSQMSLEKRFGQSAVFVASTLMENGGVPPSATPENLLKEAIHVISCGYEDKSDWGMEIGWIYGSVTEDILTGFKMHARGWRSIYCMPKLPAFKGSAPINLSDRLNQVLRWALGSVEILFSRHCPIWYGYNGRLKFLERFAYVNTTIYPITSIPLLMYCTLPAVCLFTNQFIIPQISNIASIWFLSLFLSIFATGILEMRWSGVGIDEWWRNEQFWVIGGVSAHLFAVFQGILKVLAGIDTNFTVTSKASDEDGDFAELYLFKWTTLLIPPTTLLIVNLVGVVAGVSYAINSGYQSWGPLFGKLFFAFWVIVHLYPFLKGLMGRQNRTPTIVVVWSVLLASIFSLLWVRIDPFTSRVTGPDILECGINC
Put plainly: split reporter; BiFC: N-terminal YN and YC fusions co-expressed in epidermal cells of N. benthamiana leaves, observed 3 days after infiltration by spinning-disk microscopy; CFP-N7 as transformation control.

Assay [2] addresses MUR3, N-terminal YN or YC fusion (BiFC) (UniProt Q7XJ98). The description is as above.

No constants are given. Whether binding was seen depends on the method and setting. In cells and extracts the contact can be indirect. Some entries that bind do so weakly or less than the wild type. Where a sequence is shown, tags or fusion partners need not be part of it.

B1: MUR3, N-terminal YN or YC fusion (BiFC) (protein, UniProt Q7XJ98 1-619)
chain: MFPRVSMRRRSAEVSPTEPMEKGNGKNQTNRICLLVALSLFFWALLLYFHFVVLGTSNIDKQLQLQPSYAQSQPSSVSLRVDKFPIEPHAAPSKPPPKEPLVTIDKPILPPAPVANSSSTFKPPRIVESGKKQEFSFIRALKTVDNKSDPCGGKYIYVHNLPSKFNEDMLRDCKKLSLWTNMCKFTTNAGLGPPLENVEGVFSDEGWYATNQFAVDVIFSNRMKQYKCLTNDSSLAAAIFVPFYAGFDIARYLWGYNISRRDAASLELVDWLMKRPEWDIMRGKDHFLVAGRITWDFRRLSEEETDWGNKLLFLPAAKNMSMLVVESSPWNANDFGIPYPTYFHPAKDSEVFEWQDRMRNLERKWLFSFAGAPRPDNPKSIRGQIIDQCRNSNVGKLLECDFGESKCHAPSSIMQMFQSSLFCLQPQGDSYTRRSAFDSMLAGCIPVFFHPGSAYTQYTWHLPKNYTTYSVFIPEDDVRKRNISIEERLLQIPAKQVKIMRENVINLIPRLIYADPRSELETQKDAFDVSVQAVIDKVTRLRKNMIEGRTEYDYFVEENSWKYALLEEGQREAGGHVWDPFFSKPKPGEDGSSDGNGGTTISADAAKNSWKSEQRDKTQ
For B1, the binding entry in assay [1] is recorded as “no binding”; in assay [2] it was “binds”.
